# Measurements taken from the supplement of paper PMC6531468.
# The other results are listed elsewhere or left out. These are enrichments in a pooled selection; single values are uncertain. Scores sum up all selected molecules that hold the word; the word was not tested alone.
# Biological target: IMP3 full-length (UniProt O00425)
# Assay: 6-mer SELEX enrichment z-score vs GST control; IMP3 is the RNA-binding protein IGF2BP3; higher = more enriched by binding
# Conditions: construct: FL IMP3 (1-579); SELEX round: R4
# Procedure: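 SELEX-seq with GST-tagged full-length IMP3 and an N40 RNA pool, round 4. Each 6-mer is scored as an enrichment z-score of sequence tags containing it, normalised to the matching GST SELEX round. RNA written as DNA (T = U).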
# Sequence of UniProt O00425 (O00425 whole entry): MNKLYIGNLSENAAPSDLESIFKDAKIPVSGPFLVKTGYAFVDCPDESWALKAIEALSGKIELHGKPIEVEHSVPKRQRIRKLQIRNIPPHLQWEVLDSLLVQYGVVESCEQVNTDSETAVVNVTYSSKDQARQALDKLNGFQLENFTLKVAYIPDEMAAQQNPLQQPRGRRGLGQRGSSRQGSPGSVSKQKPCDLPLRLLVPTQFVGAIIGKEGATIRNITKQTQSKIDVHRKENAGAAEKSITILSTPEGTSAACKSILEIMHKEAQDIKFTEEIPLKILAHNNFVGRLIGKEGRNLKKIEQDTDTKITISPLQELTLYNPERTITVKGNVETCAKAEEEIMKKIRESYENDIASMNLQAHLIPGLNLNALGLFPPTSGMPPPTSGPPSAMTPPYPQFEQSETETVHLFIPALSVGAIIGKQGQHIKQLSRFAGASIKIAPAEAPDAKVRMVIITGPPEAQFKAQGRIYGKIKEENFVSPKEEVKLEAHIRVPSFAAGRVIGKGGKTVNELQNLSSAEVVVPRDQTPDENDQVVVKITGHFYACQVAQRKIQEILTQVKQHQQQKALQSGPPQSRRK
row,Sequence,6-mer SELEX enrichment z-score
1,TGGGAT,0.171
2,CAGACA,1.65
3,TTCTGC,0.101
4,ATCAGT,1.22
5,CAGGGC,0.934
6,CCGTGG,0.037
7,TCGTTC,0.173
8,TCTTCA,0.63
9,ACCTCA,-0.552
10,CCCGGT,-0.253
11,TTCATG,1.06
12,CCCCAA,-1.76
13,CGACCT,-1.01
14,CGCCTC,-0.209
15,TGATGT,-0.097
16,GTCATA,0.62
17,ACTTAT,0.086
18,TATCAA,0.636
19,GTCATG,0.405
20,CGCCCG,-0.287

row,Sequence,6-mer SELEX enrichment z-score
1,GAACAA,-0.052
2,AACCGC,-0.685
3,CGAAGT,-0.78
4,GGCCGC,1.28
5,GAACAG,0.393
6,TAGCGT,-1.16
7,CCAGAG,-0.825
8,ATCATG,1.77
9,TTCGTA,-0.2
10,GGTTGA,-0.099
11,TATACT,0
12,TCCTCT,-0.088
13,ACGTTC,-0.172
14,CATCAA,2.91
15,ATACTG,0.064
16,GGTTCT,0.079
17,ATGTGC,-0.106
18,TGTCTT,0.053
19,CATCCC,0.509
20,CAGAGT,0.141
